# Reference: the antibiotic and cytotoxicity screens of Wong et al. (2023)
# The list shows a part of the results.
# Tested on: HepG2
# Assay: cytotoxicity call (relative viability < 0.9)
# Conditions: 10 µM
row,Compound,cytotoxicity call
1,CCCCNC(=O)N1C[C@@H]2[C@H](CN)[C@@H]2C1,inactive
2,Cc1ccc(S(=O)(=O)Nc2ccc3c(c2)C(=O)N([C@H](C)CO)C[C@@H](C)[C@@H](CN(C)S(=O)(=O)c2ccc(C)cc2)OCCCC[C@H](C)O3)cc1,inactive
3,CC=Cc1ccc2n(c1=O)C[C@H]1[C@H](CO)[C@@H](C(=O)NCCc3cn(C)cn3)[C@@H]2N1C(=O)C1CC1,inactive
4,C[C@H](C(=O)N(C)C[C@H]1OCc2ccccc2-c2c(n(C)c3ccccc23)C(=O)N([C@H](C)CO)C[C@H]1C)c1ccccc1,inactive
5,NNC(=O)CCCCCCC(=O)NO,inactive
6,Cc1cc(=O)oc2cc(O[C@H]3O[C@@H](CO)[C@@H](O)[C@@H](O)[C@@H]3O)ccc12,inactive
7,C[C@@H]1CN([C@H](C)CO)C(=O)c2cc(NC(=O)CCC(F)(F)F)ccc2O[C@@H](C)CCCCO[C@@H]1CN(C)Cc1ccc(C(F)(F)F)cc1,inactive
8,COS(=O)(=O)[O-].COc1cc(N)cn[n+]1-c1ccccc1,active
9,Cc1ccc(S(=O)(=O)Nc2cccc3c2O[C@H](CN(C)C(=O)NC(C)C)[C@@H](C)CN([C@H](C)CO)C3=O)cc1,inactive
10,COC(=O)C(CCCN1C(=O)c2ccccc2C1=O)(NC(C)=O)c1nn[nH]n1 (stereo not given),active
11,COc1ccc(CN(C)C[C@H]2OCCCC[C@H](C)Oc3ccc(NS(=O)(=O)c4ccc(F)cc4)cc3C(=O)N([C@@H](C)CO)C[C@@H]2C)cc1,inactive
12,C[C@@H]1CCCCO[C@@H](CN(C)Cc2ccccc2)[C@H](C)CN([C@@H](C)CO)C(=O)c2cc(NC(=O)C3CCCCC3)ccc2O1,inactive
13,CCCn1c(=O)c(C)cn2nc(N)nc12,inactive
14,N[C@@H](COP(=O)(O)O)C(=O)O,inactive
15,Cc1ccc(S(=O)(=O)N(C)C[C@@H]2OCCCC[C@@H](C)Oc3ccc(NS(=O)(=O)c4ccc(Cl)cc4)cc3C(=O)N([C@H](C)CO)C[C@H]2C)cc1,inactive
16,C[C@H]1CN([C@@H](C)CO)C(=O)c2cccc(NC(=O)Nc3cccc4ccccc34)c2O[C@H]1CN(C)C(=O)Nc1cccc2ccccc12,inactive
17,C[C@@H]1CCCCO[C@@H](CN(C)Cc2ccncc2)[C@@H](C)CN([C@@H](C)CO)C(=O)c2cc(NS(=O)(=O)c3ccc(Cl)cc3)ccc2O1,inactive
18,CNC[C@H]1OCCCC[C@@H](C)Oc2ccc(NC(=O)c3ccncc3)cc2C(=O)N([C@H](C)CO)C[C@H]1C,inactive
19,COc1ccc(NC(=O)Nc2ccc3c(c2)C(=O)N([C@H](C)CO)C[C@H](C)[C@H](CN(C)C(=O)Nc2cccc4ccccc24)O3)cc1,inactive
20,COc1ccc2c3c(n(c2c1)C)[C@@H](CO)N(C[C@]13CN(C1)C(=O)C)C(=O)CN1CCOCC1,inactive
21,Cc1noc(C)c1NC(=O)N(C)C[C@H]1Oc2ccc(NC(=O)Nc3cccc4ccccc34)cc2CC(=O)N([C@H](C)CO)C[C@H]1C,inactive
22,COc1ccccc1C#Cc1cnc2c(c1)C(=O)N([C@H](C)CO)C[C@H](C)[C@H](CN(C)C(=O)CN(C)C)O2,inactive
23,Cc1cc(C(=O)Nc2cccc3c2O[C@H](CN(C)C(=O)Nc2ccc4c(c2)OCO4)[C@H](C)CN([C@H](C)CO)C3=O)n(C)n1,inactive
24,C[C@@H]1CN([C@@H](C)CO)C(=O)c2cc(NC(=O)C3CCCCC3)ccc2O[C@@H](C)CCCCO[C@H]1CN(C)S(=O)(=O)c1ccc(Cl)cc1,inactive
25,O=C(C[C@H]1CC[C@H]2[C@@H](COC[C@@H](O)CN2S(=O)(=O)c2ccc(Cl)cc2)O1)NCc1ccncn1,inactive
26,CNC[C@@H]1OCCCC[C@H](C)Oc2ccc(NS(=O)(=O)c3c(C)noc3C)cc2C(=O)N([C@@H](C)CO)C[C@@H]1C,inactive
27,C[C@H](CO)N1C[C@H](C)[C@@H](CN(C)S(=O)(=O)c2ccc(C(F)(F)F)cc2)OCc2ccccc2-c2c(n(C)c3ccccc23)C1=O,inactive
28,Brc1ccc(-c2ccc(Br)s2)s1,inactive
29,Oc1cc(O)c2c(c1)O[C@H](c1ccc(O)c(O)c1)[C@H](O)[C@H]2c1c(O)cc(O)c2c1O[C@H](c1ccc(O)c(O)c1)[C@@H](O)C2,inactive
30,O=C(O)c1cc2ncc(CCO)cn2n1,inactive
